# Data from PubChem BioAssay AID1745853 (National Center for Advancing Translational Sciences (NCATS), 2022).
# The list shows a part of the results. These are further read-outs of the screen, such as a control signal, another cell line or another target. No call is given for them.
# Tests used:
# Assay in all cases: Primary Screen for Target Class Profiling of Small Molecule Inhibitors of Methyltransferases
# [1] = target: Glycine N-methyltransferase (Homo sapiens) (UniProt Q14749); details: purified enzyme, MTase-Glo SAH luminescence; measured here: GNMT inhibition; at 40 µM; stronger effect = lower value
# Outline: (§1)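 Each enzyme was reacted with SAM and its substrate, with compounds tested once at 40 uM; SAH formed was read by MTase-Glo luminescence.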
# [2] = target: Guanidinoacetate N-methyltransferase (Homo sapiens) (UniProt Q14353); details: purified enzyme, MTase-Glo SAH luminescence; measured here: GAMT inhibition; at 40 µM; stronger effect = lower value
# Outline: as §1
# [3] = target: Histamine N-methyltransferase (Homo sapiens) (UniProt P50135); details: purified enzyme, MTase-Glo SAH luminescence; measured here: HNMT inhibition; at 40 µM; stronger effect = lower value
# Outline: as §1
# [4] = target: Nicotinamide N-methyltransferase (Homo sapiens) (UniProt P40261); details: purified enzyme, MTase-Glo SAH luminescence; measured here: NNMT inhibition; at 40 µM; stronger effect = lower value
# Outline: as §1
# [5] = target: Phenylethanolamine N-methyltransferase (Homo sapiens) (UniProt P11086); details: purified enzyme, MTase-Glo SAH luminescence; measured here: PNMT inhibition; at 40 µM; stronger effect = lower value
# Outline: as §1
# % is set by controls: 0 for no effect and ±100 for the full control effect.
smiles,measurement,setting,value
CN1C(=O)c2cc(C(=O)NCCN3CCCC3)nn2CC1(C)C(=O)NCc1ccc(F)cc1 (stereo not given),"activity change, negative = inhibition",[1],0.045%
same,"activity change, negative = inhibition",[2],0%
same,"activity change, negative = inhibition",[3],-1.12%
same,"activity change, negative = inhibition",[4],-2.81%
same,"activity change, negative = inhibition",[5],-3.23%
Cc1ccc(S(=O)(=O)c2nnn3c2nc(NCc2ccccc2)c2ccccc23)c(C)c1,"activity change, negative = inhibition",[1],-4.82%
same,"activity change, negative = inhibition",[2],-4.41%
same,"activity change, negative = inhibition",[3],-12.6%
same,"activity change, negative = inhibition",[4],-6.01%
same,"activity change, negative = inhibition",[5],-17.2%
CC1=C(C(=O)Nc2cc3cn[nH]c3cc2F)C(c2ccc(C(F)(F)F)cc2)CC(=O)N1 (stereo not given),"activity change, negative = inhibition",[1],5.73%
same,"activity change, negative = inhibition",[2],6.95%
same,"activity change, negative = inhibition",[3],10.6%
same,"activity change, negative = inhibition",[4],-8.34%
same,"activity change, negative = inhibition",[5],3.58%
O=C(c1cccc(OC2CN(C3CCCCCC3)C2)c1)N1CCCC1,"activity change, negative = inhibition",[1],-3.36%
same,"activity change, negative = inhibition",[2],-6.05%
same,"activity change, negative = inhibition",[3],-22.2%
same,"activity change, negative = inhibition",[4],-15%
same,"activity change, negative = inhibition",[5],-19.3%
COc1ccc(-c2oc3ccc(C)cc3c(=O)c2O)cc1OC,"activity change, negative = inhibition",[1],-65.2%
same,"activity change, negative = inhibition",[2],0%
same,"activity change, negative = inhibition",[3],6.5%
same,"activity change, negative = inhibition",[4],10.4%
same,"activity change, negative = inhibition",[5],1.47%
Cc1ccc(CNC(=O)Cn2c(=O)c3ccc(Cl)cc3n3nncc23)cc1,"activity change, negative = inhibition",[1],-4.1%
same,"activity change, negative = inhibition",[2],6.1%
same,"activity change, negative = inhibition",[3],0.96%
same,"activity change, negative = inhibition",[4],-0.452%
same,"activity change, negative = inhibition",[5],-5.14%
O=C(Nc1cccc(C(F)(F)F)c1)Nc1ccc(Br)cc1-c1nn[nH]n1,"activity change, negative = inhibition",[1],-41.2%
same,"activity change, negative = inhibition",[2],-5.97%
same,"activity change, negative = inhibition",[3],-9.95%
same,"activity change, negative = inhibition",[4],-20.1%
same,"activity change, negative = inhibition",[5],-15%
CC(C)NC(=O)N1CCNC[C@@H]1C(=O)N[C@@H](CC1CCCCC1)C(N)=O,"activity change, negative = inhibition",[1],-1.87%
same,"activity change, negative = inhibition",[2],-2.85%
same,"activity change, negative = inhibition",[3],-0.465%
same,"activity change, negative = inhibition",[4],0.187%
same,"activity change, negative = inhibition",[5],-1.94%
C=CCC1(C(=O)O)CCCN(C(=O)c2cnn3c2CCCC3)C1 (stereo not given),"activity change, negative = inhibition",[1],-6.87%
same,"activity change, negative = inhibition",[2],-7.9%
same,"activity change, negative = inhibition",[3],-3.79%
same,"activity change, negative = inhibition",[4],-17.5%
same,"activity change, negative = inhibition",[5],-7.76%
CCCc1nn(-c2cccc(C)c2)c(=O)n1CC(=O)NCc1ccc(C)o1,"activity change, negative = inhibition",[1],-11.1%
same,"activity change, negative = inhibition",[2],-7.16%
same,"activity change, negative = inhibition",[3],-3.43%
same,"activity change, negative = inhibition",[4],-16.1%
same,"activity change, negative = inhibition",[5],-7.97%
C=C(CCO)C(=O)OCC1OCC(OC(=O)C(=C)CCO[C@@H]2O[C@H](COC(=O)C(=C)CCO[C@@H]3O[C@H](CO)[C@@H](O)[C@H](O)[C@H]3O)[C@@H](O)[C@H](O)[C@H]2O)C(O)C1O (stereo not given in full),"activity change, negative = inhibition",[1],0%
same,"activity change, negative = inhibition",[2],-5.5%
same,"activity change, negative = inhibition",[3],-2.05%
same,"activity change, negative = inhibition",[4],-15.1%
same,"activity change, negative = inhibition",[5],0.391%
COc1ccc(CNc2nc3c(S(=O)(=O)c4ccccc4)nnn3c3ccccc23)cc1,"activity change, negative = inhibition",[1],-4.4%
same,"activity change, negative = inhibition",[2],0%
same,"activity change, negative = inhibition",[3],1.68%
same,"activity change, negative = inhibition",[4],-4.89%
same,"activity change, negative = inhibition",[5],-4%
CCOC(=O)c1ncn2c1CN(C)C(=O)c1cc(F)ccc1-2,"activity change, negative = inhibition",[1],6.75%
same,"activity change, negative = inhibition",[2],13.6%
same,"activity change, negative = inhibition",[3],8.85%
same,"activity change, negative = inhibition",[4],-2.73%
same,"activity change, negative = inhibition",[5],4.9%
O=NN(CCCl)C(=O)NCCCl,"activity change, negative = inhibition",[1],3.79%
same,"activity change, negative = inhibition",[2],14.7%
same,"activity change, negative = inhibition",[3],7.76%
same,"activity change, negative = inhibition",[4],1.63%
same,"activity change, negative = inhibition",[5],8.27%
C[C@@H](N)C1CCC(C(=O)Nc2ccncc2)CC1 (stereo not given in full),"activity change, negative = inhibition",[1],2.34%
same,"activity change, negative = inhibition",[2],12.1%
same,"activity change, negative = inhibition",[3],12%
same,"activity change, negative = inhibition",[4],-6.3%
same,"activity change, negative = inhibition",[5],-1.18%
NCC(O)(CS(=O)(=O)O)c1ccc(Cl)cc1 (stereo not given),"activity change, negative = inhibition",[1],-10.8%
same,"activity change, negative = inhibition",[2],4.68%
same,"activity change, negative = inhibition",[3],-0.246%
same,"activity change, negative = inhibition",[4],-4.41%
same,"activity change, negative = inhibition",[5],6.31%
CC[C@H](NC(=O)c1c(C)c(-c2ccccc2)nc2ccccc12)c1ccccc1,"activity change, negative = inhibition",[1],-2.65%
same,"activity change, negative = inhibition",[2],13.3%
same,"activity change, negative = inhibition",[3],9.43%
same,"activity change, negative = inhibition",[4],-4.47%
same,"activity change, negative = inhibition",[5],0.926%
COc1ccc(S(=O)(=O)N2CCC(n3c(=O)[nH]c4ccccc43)CC2)cc1,"activity change, negative = inhibition",[1],-7.84%
same,"activity change, negative = inhibition",[2],-48.6%
same,"activity change, negative = inhibition",[3],1.41%
same,"activity change, negative = inhibition",[4],7.79%
same,"activity change, negative = inhibition",[5],-15.3%
CCCn1c(=O)c2ccc(C(=O)NC3CCCC3)cc2n2c(=O)n(Cc3cccc(F)c3)nc12,"activity change, negative = inhibition",[1],-0.814%
same,"activity change, negative = inhibition",[2],5.1%
same,"activity change, negative = inhibition",[3],-1.61%
same,"activity change, negative = inhibition",[4],-2.8%
same,"activity change, negative = inhibition",[5],-3.01%
COc1ccc(C(=O)N2CCOC[C@H](Oc3cccnc3)C2)cc1,"activity change, negative = inhibition",[1],-3.59%
same,"activity change, negative = inhibition",[2],-4.29%
same,"activity change, negative = inhibition",[3],-1.02%
same,"activity change, negative = inhibition",[4],-1.14%
same,"activity change, negative = inhibition",[5],0.948%
O=C(c1nccc2ccccc12)N1CCC2(CC1)CC(O)CCO2 (stereo not given),"activity change, negative = inhibition",[1],-4.39%
same,"activity change, negative = inhibition",[2],-2.71%
same,"activity change, negative = inhibition",[3],-4.33%
same,"activity change, negative = inhibition",[4],-7.58%
same,"activity change, negative = inhibition",[5],-12.9%
COc1ccc(CCNC(=O)c2c(C)noc2-c2cccs2)cc1OC,"activity change, negative = inhibition",[1],-2.39%
same,"activity change, negative = inhibition",[2],-3.45%
same,"activity change, negative = inhibition",[3],-0.507%
same,"activity change, negative = inhibition",[4],-20.4%
same,"activity change, negative = inhibition",[5],-3.75%
CC(C)NS(=O)(=O)c1ccc2c(c1)nc(-c1ccc(CO)o1)n2C(C)C,"activity change, negative = inhibition",[1],-4.38%
same,"activity change, negative = inhibition",[2],1.7%
same,"activity change, negative = inhibition",[3],0.258%
same,"activity change, negative = inhibition",[4],-1.39%
same,"activity change, negative = inhibition",[5],4.06%
COCCCNC(=O)C1(C)Cn2nc(-c3ccccc3)cc2C(=O)N1Cc1ccc(F)cc1 (stereo not given),"activity change, negative = inhibition",[1],-5.08%
same,"activity change, negative = inhibition",[2],-1.19%
same,"activity change, negative = inhibition",[3],-3.75%
same,"activity change, negative = inhibition",[4],-6.85%
same,"activity change, negative = inhibition",[5],-7.63%
Cc1ccc(Cl)cc1N1C(=O)c2cc3occc3n2CC1(C)C(=O)NC1CCCCCC1 (stereo not given),"activity change, negative = inhibition",[1],-1.71%
same,"activity change, negative = inhibition",[2],0%
same,"activity change, negative = inhibition",[3],-7.36%
same,"activity change, negative = inhibition",[4],-5.83%
same,"activity change, negative = inhibition",[5],0.801%
O=C1CC2(CCN(CC3CCCCC3)CC2)Oc2ccccc2N1c1ccccc1,"activity change, negative = inhibition",[1],-0.764%
same,"activity change, negative = inhibition",[2],2.08%
same,"activity change, negative = inhibition",[3],-4.02%
same,"activity change, negative = inhibition",[4],-2.49%
same,"activity change, negative = inhibition",[5],8.16%
CC(C)Oc1ccc(CN2C(=O)c3cc(C(C)(C)C)nn3CC2(C)C(=O)NC2CCCCC2)cc1 (stereo not given),"activity change, negative = inhibition",[1],-0.541%
same,"activity change, negative = inhibition",[2],-0.87%
same,"activity change, negative = inhibition",[3],1.76%
same,"activity change, negative = inhibition",[4],4.61%
same,"activity change, negative = inhibition",[5],-1.54%
CC(=O)OC1CC2(C)C3=CCC4(C)C5C(O)C(O)C(C(C)C)C5(C)CCC4(C)C3CCC2C(C)(C)C1OC1OC(CO)C(O)C(O)C1O (stereo not given),"activity change, negative = inhibition",[1],4.15%
same,"activity change, negative = inhibition",[2],19.6%
same,"activity change, negative = inhibition",[3],10.6%
same,"activity change, negative = inhibition",[4],3.82%
same,"activity change, negative = inhibition",[5],3.72%
CC(C(=O)O)c1cccc(C(=O)c2ccccc2)c1 (stereo not given),"activity change, negative = inhibition",[1],2.21%
same,"activity change, negative = inhibition",[2],9.77%
same,"activity change, negative = inhibition",[3],4.39%
same,"activity change, negative = inhibition",[4],-3.5%
same,"activity change, negative = inhibition",[5],8.79%
O=C1CCCN1c1ccc(CN2CC(=O)N(Cc3cccc(F)c3)c3ccccc3S2(=O)=O)cc1,"activity change, negative = inhibition",[1],-0.436%
same,"activity change, negative = inhibition",[2],4.92%
same,"activity change, negative = inhibition",[3],7.06%
same,"activity change, negative = inhibition",[4],1.22%
same,"activity change, negative = inhibition",[5],0.233%
